# ± gives the standard deviation of the averaged measurements. In all, about 33,000 sequences were measured (“E-score (dimensionless, -0.5 to 0.5)”: median about -0.046, highest 2% from about 0.36 on). This is one part of the list.
# Tested on: T1, SpTbr T-box DNA-binding domain (GST fusion)
# T1 sequence: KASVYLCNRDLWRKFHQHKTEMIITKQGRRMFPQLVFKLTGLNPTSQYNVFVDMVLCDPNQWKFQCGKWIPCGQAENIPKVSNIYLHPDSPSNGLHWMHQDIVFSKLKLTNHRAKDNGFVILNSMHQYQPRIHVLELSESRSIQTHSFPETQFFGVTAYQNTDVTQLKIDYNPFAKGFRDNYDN
# Assay: PBM E-score of 8-mer (E-score (dimensionless, -0.5 to 0.5)); Tbr is Tbrain of the sea star Patiria miniata (Pm) or the sea urchin Strongylocentrotus purpuratus (Sp); higher = stronger binding preference; most listed sequences are background and not binding sites
# Settings: the construct has about 5 more residues each side
# Outline: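 Each ungapped 8-mer received an enrichment E-score from the Universal PBM Analysis Suite, averaged over duplicate arrays. The proteins were Tbr T-box DNA-binding domains, covering the whole T-box plus about five flanking residues, fused to GST and expressed in BL21 E. coli at 20 °C before glutathione affinity purification. Universal Agilent oligonucleotide arrays were made double-stranded by primer extension and incubated with 200 nM protein in PBS (pH 7.5). The arrays were then scanned and quantified, and every 8-mer was scored from probe intensities.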
row,Sequence,PBM E-score of 8-mer
1,ACCATGCT,0.133 ± 0.029
2,CTAGCTGC,0.0411 ± 0.039
3,CGGGAGCC,-0.154 ± 0.0025
4,CCTGTCCG,-0.0247 ± 0.049
5,CCTGCTTC,-0.0253 ± 0.016
6,CATATGCA,-0.0874 ± 0.034
7,GGAAGGCC,-0.3562 ± 0.0021
8,GTGCAAAC,0.362 ± 0.016
9,ACCCAAAG,-0.245 ± 0.012
10,GTGTAGCA,0.0717 ± 0.046
11,CGTCAACA,0.356 ± 0.0058
12,AGCTTAGA,-0.192 ± 0.053
13,AGGTGATA,0.428 ± 0.015
14,CAAGAGTG,0.129 ± 0.018
15,TACGAAGA,-0.147 ± 0.027
16,AGCTTACT,-0.144 ± 0.015
17,AAGGCAGC,-0.0936 ± 0.075
18,ACATATTG,0.0587 ± 0.083
19,CACCCGGG,0.301 ± 0.052
20,CCAGAAAG,-0.0587 ± 0.042
21,CAGCAACA,0.0872 ± 0.056
22,ATCAATCG,0.0277 ± 0.019
23,AGGCACCC,-0.131 ± 0.015
24,CCGGGCAC,-0.17 ± 0.095
25,CGATGGTC,-0.228 ± 0.014

row,Sequence,PBM E-score of 8-mer
1,ATTCGGAG,-0.231 ± 0.026
2,CCTTGTAG,-0.115 ± 0.046
3,CATAATGA,-0.059 ± 0.023
4,GGGCCCGA,-0.311 ± 0.0069
5,GAAGTCAC,-0.0282 ± 0.03
6,CTCTCAAG,0.0211 ± 0.00057
7,ATTGTGCA,-0.0635 ± 0.021
8,ATCGACTG,-0.112 ± 0.02
9,TATTTACA,-0.0226 ± 0.11
10,CTCCCCCC,-0.301 ± 0.072
11,AGCTCTTC,-0.148 ± 0.065
12,TCCGACAA,0.0636 ± 0.0061
13,CCTGCCAC,0.24 ± 0.032
14,CTTTTCGC,0.253 ± 0.0066
15,TCAAAACA,-0.0641 ± 0.14
16,AATTTGTC,0.225 ± 0.026
17,ATGCTCTA,-0.383 ± 0.028
18,TATAAGAA,-0.0729 ± 0.012
19,CGGGTGAG,0.272 ± 0.026
20,GAATGAAA,-0.11 ± 0.061
21,CTTATAAG,-0.176 ± 0.052
22,ACTAGATG,-0.108 ± 0.0075
23,CGGTGTCA,0.398 ± 0.02
24,AACACTCC,0.283 ± 0.039
25,AAAGCTCC,-0.327 ± 0.0046

row,Sequence,PBM E-score of 8-mer
1,AACGGGTG,0.171 ± 0.071
2,CCCCGGCG,-0.151 ± 0.1
3,ACCCGCTG,0.115 ± 0.016
4,CTCCGACC,-0.19 ± 0.027
5,CAACTCCG,-0.0205 ± 0.067
6,AGCTAAGC,-0.0428 ± 0.0065
7,ATCCGCAA,-0.0387 ± 0.07
8,AACGTAGA,-0.263 ± 0.076
9,CTCTTGCC,-0.0138 ± 0.047
10,AAACGGGC,-0.147 ± 0.032
11,TCACTCAA,-0.0225 ± 0.028
12,GCTTACCC,-0.0588 ± 0.05
13,ATATTTCG,0.157 ± 0.045
14,AAGTATGC,-0.00957 ± 0.004
15,ATGCCGTC,-0.0234 ± 0.07
16,GCTTAATA,-0.175 ± 0.049
17,ATGGTCTG,-0.14 ± 0.07
18,CATTCGAA,-0.139 ± 0.062
19,ATTCGTTG,-0.119 ± 0.044
20,GATGGGAC,-0.0989 ± 0.058
21,GATGTAAC,-0.0143 ± 0.042
22,GATCCACA,0.153 ± 0.018
23,AAATTCCG,0.0048 ± 0.067
24,TGCCGGAA,0.00701 ± 0.028
25,GCTGTTTA,-0.00322 ± 0.026

row,Sequence,PBM E-score of 8-mer
1,GACGACTA,0.0751 ± 0.046
2,ACACTATC,0.315 ± 0.037
3,TCACACCA,0.4853 ± 0.0026
4,CCTCTCCA,-0.0753 ± 0.045
5,CAGAATGC,0.0116 ± 0.023
6,AGCCGGTC,-0.23 ± 0.05
7,CGTCTTCA,0.0585 ± 0.015
8,ACGGGTGA,0.154 ± 0.07
9,GCCCACGC,-0.00206 ± 0.064
10,CATAATTC,-0.0609 ± 0.065
11,ACGAGTCA,-0.0179 ± 0.03
12,AAATGTAC,-0.164 ± 0.017
13,TAAACTAA,-0.0791 ± 0.025
14,CGAAGAAA,0.0153 ± 0.038
15,AGTGATCC,-0.191 ± 0.056
16,CCGGGAGA,0.0264 ± 0.034
17,CCCCAGTA,-0.118 ± 0.0053
18,GTCTTAAC,-0.0678 ± 0.003
19,CAATTTAC,0.0958 ± 0.01
20,ATAGGCTC,-0.167 ± 0.02
21,CCAAGAGC,-0.28 ± 0.06
22,CCGAAACG,-0.0396 ± 0.06
23,CGTAGTGC,-0.0779 ± 0.017
24,GATATGCC,-0.036 ± 0.044
25,CGAGAACA,0.251 ± 0.0091

row,Sequence,PBM E-score of 8-mer
1,CCGTGGTC,-0.0142 ± 0.021
2,GGAAGCCA,-0.144 ± 0.073
3,CCGCACCA,0.186 ± 0.032
4,CCGAGCAA,-0.342 ± 0.027
5,CAGATAGA,-0.131 ± 0.025
6,AATGTACG,-0.0841 ± 0.011
7,AAGACAAT,-0.0151 ± 0.026
8,CCTTCTAC,-0.101 ± 0.061
9,AGTATAGA,-0.196 ± 0.054
10,ACAGTTCC,0.102 ± 0.057
11,CGCGGCCG,-0.0257 ± 0.089
12,GTGCTTCA,-0.0552 ± 0.0097
13,ACGCCCCA,0.167 ± 0.026
14,CTTCTTGC,0.0112 ± 0.02
15,GGGAAGCA,-0.108 ± 0.014
16,CGCCAGCC,0.0479 ± 0.008
17,ACACTGGC,0.0145 ± 0.013
18,CGGCGGAC,-0.136 ± 0.046
19,CGTTCCAG,-0.116 ± 0.065
20,TACAGAGA,-0.0976 ± 0.025
21,GCAACTGC,0.06396 ± 0.00043
22,CCAGAGAA,-0.0442 ± 0.074
23,ACTTGGGG,0.0655 ± 0.11
24,AATGCCCA,-0.142 ± 0.056
25,ATCTCGGC,-0.162 ± 0.079

row,Sequence,PBM E-score of 8-mer
1,GCCCATTA,-0.2784 ± 0.00071
2,CAAAAAAC,0.0928 ± 0.037
3,GACAAACC,0.014 ± 0.012
4,ACAATAAG,-0.0246 ± 0.0034
5,CGTAGGAG,-0.1355 ± 0.0004
6,ACTGGTCC,-0.343 ± 0.053
7,CACGTCAG,0.268 ± 0.047
8,ATAACTAA,-0.0433 ± 0.019
9,ATGTTTAC,0.0746 ± 0.011
10,AAACCTTG,-0.17 ± 0.045
11,TCCATCAA,-0.0498 ± 0.014
12,GGAGGTGA,0.374 ± 0.035
13,GATGCTTA,-0.168 ± 0.0076
14,AGTCAACC,-0.0257 ± 0.009
15,GGCTGCAC,0.103 ± 0.013
16,GGCATTAA,-0.191 ± 0.03
17,AAGTATCT,-0.282 ± 0.0068
18,GCGCAGAA,-0.0239 ± 0.0019
19,CGCTCAAC,-0.114 ± 0.091
20,ACATTCGA,-0.164 ± 0.0077
21,ATAATAAT,-0.154 ± 0.035
22,AGCAGGAT,-0.172 ± 0.1
23,ACCCCCGC,0.0847 ± 0.022
24,GAACAGAC,-0.0406 ± 0.00095
25,GTTGGGAA,0.0689 ± 0.011

row,Sequence,PBM E-score of 8-mer
1,GGGATATA,0.00746 ± 7.1e-05
2,AGCCGGGC,-0.259 ± 0.063
3,GAGCAGGC,-0.0942 ± 0.062
4,AGCCCCGA,-0.183 ± 0.0085
5,ATCATAAG,-0.0133 ± 0.12
6,TAGGCCAA,-0.279 ± 0.019
7,GTGGGTAA,-0.02 ± 0.036
8,ACTGAAGT,-0.084 ± 0.015
9,GACAGGCA,-0.0464 ± 0.052
10,ATTCGATC,-0.0772 ± 0.017
11,AAAGTATT,-0.174 ± 0.07
12,CGGTGTAA,0.216 ± 0.014
13,CACGCGCC,0.299 ± 0.037
14,GGTATAGA,-0.183 ± 0.074
15,GTCAGAGA,-0.0734 ± 0.08
16,TTATGGAA,-0.127 ± 0.062
17,ATGCAAAC,0.0363 ± 0.037
18,ATTGACGA,0.145 ± 0.003
19,CAGCCTGA,-0.134 ± 0.018
20,CCCATAAA,-0.142 ± 0.04
21,ACTTTTAC,0.0186 ± 0.12
22,AGCACGGC,-0.0477 ± 0.075

# Reference: the supplement of paper PMC4166925
